# Experimental data: the supplement of paper PMC10185492
# This is one part of the list. Values come from read counts of a selection and are noisy.
# Test system: SARS-CoV-2 3CLpro (nsp5)
# Test: substrate phage enrichment score (protease-eluted vs HEPES control, +1 offset) (ratio); higher = better cleaved substrate
# Settings: selection round: 4; protease elution time: 15 min
# Experimental: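 Random heptapeptide substrate phage display (M13 pIII fusion, heptapeptide between an N-terminal biotinylated AviTag GLNDIFEAQKIEWHE and pIII; phages immobilised on streptavidin) eluted by cleavage with 50 nM protease in 20 mM HEPES at 37 °C. Selected phages were NGS sequenced, and the enrichment score is (reads in protease sample + 1)/(reads in HEPES blank-selection control + 1).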
row,Substance,substrate phage enrichment score
1,ACRNRPP,> 22
2,YERLTGT,> 22
3,SYEGETK,2
4,ALNSSGR,> 23
5,GPVNLQS,> 83
6,ASALGCS,8.62
7,AKNSLWQ,> 43
8,CTCPETR,0.857
9,SRKGGDH,17
10,PSKQCPR,> 43
11,YFGSVNQ,> 27
12,NGLPTCP,0.7
13,PSSTTLQ,> 648
14,SPVTLQS,> 44
15,TTYEVPG,28.5
16,CWDGQGS,4.4
17,GGNPQCP,3.62
18,SPRAICQ,> 597
19,ASSGYPT,3.46
20,AWGDTSR,1.44
21,REPVLCQ,> 28
22,FMPLCQA,13
23,ERSCSTH,> 21
24,PVSHAPQ,> 50
25,SAAARHH,1

row,Substance,substrate phage enrichment score
1,RVPVPIG,> 40
2,RDNNVKY,0.514
3,SATAHHH,0.438
4,NEIRSTR,> 22
5,ISSQPHN,> 21
6,LESSGTQ,2.62
7,AHTEWRD,1.36
8,RCGLNQM,> 36
9,LLIRSCR,178
10,RVELLEP,2.71
11,ECCLQGG,> 33
12,ASAPKLP,3.8
13,LYFQCGS,1.42
14,HTPCRSS,0.647
15,AYLQGGS,1
16,PHKYDDN,0.867
17,VNLQTSH,> 25
18,PAAQDTR,6.5
19,RRSPNGW,5
20,ATGCSTM,> 28
21,ANMPSKR,> 45
22,AQSSNRD,3.4
23,ESDHQST,0.238
24,CAAAHQQ,1.21
25,HIYKLNS,0.714

row,Substance,substrate phage enrichment score
1,VVGLGVV,8.67
2,AQLHNTQ,> 23
3,VTSEKHT,> 27
4,PRTLYFQ,> 24
5,PALQSST,> 414
6,DPAAHHH,0.48
7,GRPLFAT,3.14
8,AGRHCKG,29
9,REVLVTN,1.25
10,SNSCGSA,14.6
11,EKEHFSV,2.14
12,LRSAEPW,0.177
13,QSNQRPG,1.2
14,HLCEGLF,1.07
15,TGLPPSV,2.71
16,TEINHIR,> 27
17,QRVPHLK,2.13
18,ASNKCVG,2.14
19,TAHHHHH,1.3
20,CRRFRRI,95
21,VESEVRP,2.67
22,ESTFPVR,2.67
23,NPSLNNC,> 28
24,AQPVTSS,> 34
25,NTTVRPT,5.6

row,Substance,substrate phage enrichment score
1,LVHQLPD,2.08
2,AAQIHTR,> 35
3,ATWGKSP,> 25
4,LCIPNLQ,24.7
5,WHSTDKA,0.5
6,GNSWRVQ,0.0682
7,LSNYEDW,1.07
8,PKGTWPG,> 26
9,FYGPKTV,0.591
10,FNPQGTG,1.73
11,QKYVLPT,5.86
12,PSAAAHH,0.827
13,SGRVKMT,2.57
14,ANNVCAE,0.0833
15,SLAAHHH,4.62
16,HNCGARQ,0.435
17,TEHHSTE,1.44
18,YGSDGAK,> 33
19,PNELQSY,> 26
20,SLEASFR,0.471
21,CLQGVEK,15
22,RDMNPKS,> 34
23,RVWKPHP,4.83
24,YMMFDAT,> 31
25,REPNFQG,3.88

row,Substance,substrate phage enrichment score
1,ETQAPTS,0.706
2,FRDIQLR,> 34
3,SSRINMT,0.5
4,QKRTTLQ,64
5,VHRSGPT,> 41
6,SMRGEYP,> 44
7,HGRTPSD,0.0962
8,YECTSKK,6.8
9,CAEGVAK,0.158
10,LICWCHR,4.44
11,ATDLPSR,0.143
12,DPGRCGG,0.833
13,RSSSSED,0.0147
14,VACLQAS,> 29
15,PKGDISR,1.69
16,KFGPRKQ,> 28
17,SKQTAGT,1.89
18,GTYQGPQ,0.0667
19,IGLTPSR,0.647
20,THTRGTS,> 34
21,NSHRTWF,0.111
22,HRTTPLQ,2.3
23,NAAAAHH,17
24,AGNKVHW,> 22
25,HTLVAKV,1.05

row,Substance,substrate phage enrichment score
1,CAAAHNH,0.6
2,RADNDSE,> 28
3,RESRLQS,> 142
4,RHEATSD,2.65
5,LGPHIII,0.857
6,SRTPDEG,5
7,SRTGEYH,> 27
8,VLTGMGG,6.75
9,PAILQSG,> 33
10,SAAPQQQ,2.22
11,ICIYDER,2.15
12,KCIHVPK,> 32
13,KHQCTLI,> 29
14,ATGAAAH,> 22
15,APVIHYD,7.33
16,YEDWIRG,0.765
17,STYNNMQ,5.62
18,YTEDKLS,0.875
19,TWAAHHH,5.56
20,NRPEHCR,> 21
21,PIGHMTR,14
22,PGQNEWP,4.8
23,YQKHGSR,> 49
24,SPTDDLW,> 42
25,QEPVSLQ,> 31

row,Substance,substrate phage enrichment score
1,FNHDLNR,0.0408
2,SHEETHK,0.95
3,AELQCNV,> 23
4,PSSRPTS,4.47
5,QHGQNKA,0.769
6,AIPEPER,> 85
7,KHYAKPV,4.36
8,TGIGATS,11
9,STSKTLP,3.14
10,ARSSIPL,1.05
11,VSFPELS,2.69
12,ADSRKRP,> 52
13,RGVLQNH,1.53
14,RSYPKNP,> 75
15,PPKCPHR,> 35
16,SPGCRLM,19.5
17,ACDQRPD,> 22
18,WSTNPRA,0.353
19,QPHEHPH,0.25
20,RPVVPEK,2.36
21,GGNTNLM,> 21
22,WNQGPLR,10.5
23,TTTAHHH,2.6
24,TQNITLQ,> 40
25,RFVEWRP,1.82

row,Substance,substrate phage enrichment score
1,THWTGCW,1.8
2,TRIPQPC,0.667
3,TAEGLRM,> 28
4,PHACPSL,3.5
5,PGKMCKG,7.38
6,TESVRRP,7
7,RCVLING,> 31
8,PPAAHHH,1.01
9,DLTDTPV,3
10,PASAHHH,31.2
11,RNFRSER,7.17
12,ECWNVGS,1.5
13,IRPSDAE,6.55
14,TQGVNLC,> 31
15,LYFHGGS,3.22
16,MRCSADA,0.643
17,DVRNLLS,> 23
18,SQANEMQ,> 27
19,AMKTGAF,3.5
20,THFSDRQ,0.733
21,SPVREQD,7.33
22,HPPGMIH,> 35
23,WQRVPSR,2.8
24,PPCVILQ,> 252
25,NEAGILM,> 105

row,Substance,substrate phage enrichment score
1,RHMRGSR,1.15
2,SQVILQA,63.5
3,ASVTSLQ,2.83
4,GGSPSRQ,1.45
5,VHLQARC,> 56
6,VISGVFV,> 23
7,KRGTNLC,> 80
8,KSERDAH,4.22
9,SSDCVIP,> 49
10,TRDGRAT,1.5
11,RPAKGCV,> 22
12,MGLAVPQ,> 24
13,QVIKEHH,1.7
14,GNLDNCR,1.93
15,KQGGSAA,0.579
16,DIHNEVI,1.54
17,SERIRTG,19
18,FEAAHHH,0.458
19,NALPFTQ,> 27
20,PNGYGPN,2.55
21,AQWASET,13
22,APLTGRC,> 35
23,SAYGSAA,17.5
24,PYDNSNW,> 34
25,HSAQPGP,0.233

row,Substance,substrate phage enrichment score
1,TLQCTQV,> 35
2,AVEARNM,7
3,PSRQPRA,> 28
4,ENQLGPS,7
5,TRLQSDW,> 72
6,AGSGEAG,3.67
7,AHAAAHH,2
8,EEVRHMP,> 53
9,VSLQIDR,3.71
10,SCFPARN,0.025
11,SHIQGWS,> 28
12,KSQLNID,8.6
13,YRDNEPW,2.5
14,SERFLHW,1.38
15,CRYQKQH,> 21
16,GCLEVRD,9
17,VDLPKLQ,32
18,ARGETTP,1.3
19,VSREILG,2.75
20,KQCSPRY,9.8
21,CSAHNLW,22
22,AQKHCRQ,> 26
23,FHASKPR,35
24,QAGPYGR,9.23
25,TNKHPRQ,9.33

row,Substance,substrate phage enrichment score
1,RRVDPPS,> 101
2,SDNSTMR,> 28
3,TRGVPSK,3.83
4,AIAPIYK,1.64
5,RNGLNVQ,5.22
6,GVRCTRT,15.3
7,SNAAAHH,0.529
8,LESIPSR,0.844
9,SRSPPAL,> 36
10,YCQGGSA,6.71
11,STLPSRL,0.467
12,RCVDKPI,3.8
13,EHGYSTG,10
14,AVKAKES,11.7
15,SAQKGTP,> 31
16,IQPSWKS,6.93
17,SEGRNAA,> 34
18,ALEGQVK,> 78
19,LNAGDVK,1
20,DHEHMPR,1.75
21,SRVTQGS,0.273
22,PETVLMQ,> 38
23,SPHIGLC,5.73
24,YLTGPGR,0.786
25,SNATAHH,25.5

row,Substance,substrate phage enrichment score
1,KYITELQ,168
2,GTSQGST,1.21
3,AVLQASG,16.2
4,YGYEHHG,> 57
5,SHCGTTT,> 43
6,STGRCMQ,> 30
7,RCRMLPR,> 28
8,DKRSITD,0.333
9,TNKPAQV,1.33
10,ESSSQVK,0.0769
11,CQKAYRG,> 24
12,HDVNLKP,> 43
13,DMGPCIR,1.82
14,LKNAALQ,> 183
15,EQKGWGL,0.438
16,RNYQKCR,5.67
17,FKYPGDR,> 29
18,QRCGDES,> 29
19,RQIAPLS,3.67
20,RGQPETS,> 24
21,YTSTPQE,8.8
22,VTPLTGC,0.611
23,VEKSCCP,0.333
24,AKKDRIT,> 22
25,HLNCAHH,> 41

row,Substance,substrate phage enrichment score
1,CESSVKP,1.67
2,LCHEPKV,> 28
3,LATFRGS,6.83
4,SCRQKPA,> 70
5,PNALNCS,> 21
6,MEQASQQ,12.5
7,CYEAGWH,> 56
8,PSKPTLH,32.8
9,SPRTRLH,> 26
10,SLSRMSL,> 22
11,MDDRCFM,71.5
12,CNAAAHH,0.71
13,ENPRNAD,4.11
14,AEGKGRQ,> 29
15,FVHGYPS,8.67
16,IKSASSR,6.25
17,SEQNVLQ,15
18,ERVDNKE,22.5
19,SDIPTRW,1
20,AFWGPCY,0.1
21,RPEPTKQ,1.5
22,SNLPALQ,66
23,HAAAYGQ,> 22
24,NENGVIV,> 26
25,YQASGAR,> 53

row,Substance,substrate phage enrichment score
1,RSYTPSN,2.67
2,ALKNSGN,0.476
3,QCKTMNG,> 45
4,CKSSVSR,> 44
5,VKLVPSK,4
6,RLWQQDN,> 32
7,TSYSTKY,0.154
8,DENRLRI,> 28
9,RQNEILR,> 38
10,TESLRRR,2
11,RNEACTT,> 27
12,SSNAAAH,2.62
13,LNDRHRS,0.75
14,SWTCHLQ,> 85
15,SMGSSGR,8.45
16,QPGSQQW,> 28
17,EKYGSPL,9.25
18,SNAESCI,0.643
19,HLNWISP,> 21
20,EPWPAKM,0.357
21,WKEQSKK,8.67
22,DTEQLIR,0.655
23,HASEWVP,1.04
24,ADRCKTP,1.55
25,RKSAHHH,0.273

row,Substance,substrate phage enrichment score
1,GRPHIII,0.714
2,YEGPVNQ,> 22
3,FNEPGTP,23.7
4,SRSEEAA,> 26
5,CKHGSAR,4.08
6,LKLNTTR,> 28
7,AYLQSNR,> 32
8,NYDAVNT,2.1
9,TKDSVLQ,26.5
10,NGEASQQ,1.64
11,RNESLNP,> 48
12,SSREDGL,0.467
13,RGAHVER,19.1
14,EIPVPST,> 47
15,PGSAAHH,> 25
16,REAEDRQ,1.31
17,EDCGSRS,1.7
